# Assay results as given in the supplement of paper PMC12217912.
# Some of the results follow. The full chains were built here from the parent and the listed change. Inactive controls read about 0.05.
# B1: TEV protease; numbered along this chain (parent)
# chain: MGESLFKGPRDYNPISSSICHLTNESDGHTTSLYGIGFGPFIITNKHLFRRNNGTLVVQSLHGVFKVKDTTTLQQHLVDGRDMIIIRMPKDFPPFPQKLKFREPQREERICLVTTNFQTKSMSSMVSDTSCTFPSGDGIFWKHWIQTKDGQCGSPLVSTRDGFIVGIHSASNFTNTNNYFTSVPKNFMELLTNQEAQQWVSGWRLNADSVLWGGHKVFMVKPEEPFQPVKEATQL
# Variants of: B1
# Assay: raw area under fraction-flipped curve 0-4 h after induction (AUC4h, not background-subtracted), DNA-recorder readout of cleavage of the substrate (dimensionless); higher = more cleavage of the substrate by the protease variant
# Details: temperature: 34 °C; time window: 0-4 h after rhamnose induction
# Description: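 In vivo DNA recorder in E. coli TOP10(DE3) ΔrhaA at 34 °C. Each TEVp single-site mutant (parent TEVp 0) is paired with a single-site variant of the 7-mer TEVs (canonical ENLYFQ|S). The substrate sits between flexible linkers in a Bxb1-sfGFP-TEVs-SsrA fusion, so cleavage stabilises Bxb1 and speeds flipping of a recombination array, read by NGS. The value is the raw area under the fraction-flipped curve over 0-4 h after rhamnose induction (AUC4h), with ≥20 reads per time point. It is not background-subtracted; inactive controls average about 0.047.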
# 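Further: Bxb1 expression induced with 0.2% (w/v) L-rhamnose at OD600 near 0.5, cultures sampled hourly, flipped fraction per protease–substrate barcode pair counted by paired-end Illumina sequencing.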
Variant,area with substrate ENLYFQA,area with substrate ENLYFQF,area with substrate ENLYFQI,area with substrate ENLYFQK,area with substrate ENLYFQL,area with substrate ENLYFQM,area with substrate ENLYFQQ,area with substrate ENLYFQR,area with substrate ENLYFQS,area with substrate ENLYFQT,area with substrate ENLYFQV,area with substrate ENLYFQC,area with substrate ENLYFQD,area with substrate ENLYFQG,area with substrate ENLYFQH,area with substrate ENLYFQN,area with substrate ENLYFQW,area with substrate ENLYFQY,area with substrate ENLYFQE,area with substrate ENLYFQP
T70N,0.0683,0.0754,0.0611,0.057,0.0561,0.0716,0.065,0.0552,0.0755,0.0697,0.0537,,,,,,,,,
R87F,0.0824,0.0357,0.0583,0.0623,0.0642,0.0752,0.077,0.0452,0.0839,0.0783,0.0556,0.0977,0.0881,0.0789,0.0639,0.0657,0.0558,0.0642,,
F101R,0.0555,0.0423,0.0544,0.0579,0.0382,0.0519,0.0451,0.0514,0.0552,0.0545,0.0404,0.0396,,0.0437,0.0725,,0.0525,0.0432,,
Q194Y,0.093,,,0.0577,,0.0995,,0.0701,0.106,0.068,,,0.073,0.0916,,,,0.0899,0.0674,
T147A,0.0902,,0.056,0.0669,0.0536,,,0.0728,0.0851,0.0739,0.0495,0.11,,0.0623,,0.0373,0.0642,0.0783,0.0704,0.0614
L22Q,0.0481,0.0398,0.0499,0.0367,0.0478,0.0429,0.0403,0.0518,0.0488,0.065,0.0546,0.0538,,,0.0572,0.0424,0.0449,0.0317,,
S135W,0.0666,0.0518,0.0599,,0.0498,0.0621,,0.0572,0.0641,0.0449,0.059,0.0624,,0.0419,0.0655,0.0533,0.0453,,,
S182P,0.12,0.0741,,,,0.101,,,0.118,0.0743,0.0534,0.129,,,0.0878,0.0652,,0.0753,,
Y179C,0.0524,,0.0508,0.0596,0.0559,0.0628,,0.0612,0.0624,0.0621,0.0626,0.0624,0.0152,0.0593,0.0617,0.062,0.0541,,,
L191E,0.0593,,0.0469,0.0485,0.0563,0.0659,,0.0583,0.0599,,0.0939,0.064,,,0.0586,0.0572,0.0546,,,
D11C,0.121,0.0754,,0.0607,0.0596,0.0889,,0.0584,0.102,0.0959,0.0542,0.155,,0.0898,,0.0688,0.0664,0.0923,0.0596,
P96I,0.0878,,0.0668,,0.0594,0.0802,,0.0577,0.0982,0.0593,,0.095,,0.112,,0.0708,0.0694,,,
K90S,0.0954,,0.0561,,0.0684,0.0599,,0.0593,0.0903,0.0675,0.0562,0.126,,0.0799,0.107,,,0.0575,,
P225E,0.0989,,,0.058,0.0735,,,,0.107,0.0663,,,,0.0908,0.078,0.067,0.0526,0.0502,,
F38H,0.091,,0.0589,0.0497,0.056,0.0872,,0.0606,0.0887,0.0649,0.0579,0.127,0.0722,,0.0809,0.0705,0.0642,,0.0566,
F140Q,0.0675,,,0.0596,,,,,0.0591,,,,,,0.0749,,,0.0646,,
R51Y,0.107,,,0.0641,,0.0859,,,0.117,0.0742,0.0925,,,0.116,0.0792,,,0.105,,0.0574
V210R,0.0707,,0.0533,,,0.0578,,0.0573,0.0764,0.0655,0.0647,0.102,,,,0.0669,,0.0526,,0.0317
K7L,0.11,0.0819,0.0564,0.0687,0.0611,,,0.0588,0.0759,,,0.0578,0.0607,,,,0.0543,0.0585,0.0608,0.0658
C111P,0.0602,,0.0515,0.0521,0.0491,0.0342,,0.044,0.052,,,0.0616,0.0466,0.0523,0.0486,0.0266,,,,
P225G,0.0984,,0.0555,0.0519,0.0628,0.0947,0.0757,0.061,0.101,,0.0643,0.114,0.0782,,,0.0736,0.0168,0.0742,,0.0628
V183Q,0.0486,,,0.056,0.049,0.0478,,0.0541,0.0611,0.0699,0.0489,,0.0765,0.0398,,0.0492,0.0389,,,
Y179F,0.0678,,0.0548,,0.0768,0.0672,,,0.0902,0.0993,,0.0908,,,,,,,,
L99F,0.0748,,,,0.0596,0.045,,0.0586,0.0869,,,,,0.0967,0.0704,,,0.0805,,
V58H,0.0388,,0.0507,,,0.0545,,0.0384,0.0507,,,0.0676,,,,,,,,
T159D,0.102,,,,,,,,0.102,0.0756,,,,,,,,,,0.0743
P9I,0.11,,,,,0.0895,,,0.109,0.0664,0.0538,,,0.148,0.0843,,,0.0919,,
E108F,0.0582,,,0.0489,,0.057,,0.0697,0.0608,0.0454,,0.0559,,0.0505,,,,,,
L73C,0.0829,,0.0583,,0.0645,,,0.0482,0.075,0.0583,,0.0846,0.0526,,0.0491,0.0693,0.0541,0.0594,,
K7G,0.0902,,0.054,,0.0506,0.0918,0.089,0.0783,0.0928,0.0723,,,,,,,,0.0893,,
